A collection of fitness landscapes (doi:10.1126/science.1257360)
This is one part of the list.

B1: PhoQ; a variant is named by its letters at X, in order, P23837 (parent)
chain: MKKLLRLFFPLSLRVRFLLATAAVVLVLSLAYGMVALIGYSVSFDKTTFRLLRGESNLFYTLAKWENNKLHVELPENIDKQSPTMTLIYDENGQLLWAQRDVPWLMKMIQPDWLKSNGFHEIEADVNDTSLLLSGDHSIQQQLQEVREDDDDAEMTHSVAVNVYPATSRMPKLTIVVVDTIPVELKSSYMVWSWFIYVLSANLLLVIPLLWVAAWWSLRPIEALAKEVRELEEHNRELLNPATTRELTSLVRNLNRLLKSERERYDKYRTTLTDLTHSLKTPLXXLQXXLRSLRSEKMSVSDAEPVMLEQISRISQQIGYYLHRASMRGGTLLSRELHPVAPLLDNLTSALNKVYQRKGVNISLDISPEISFVGEQNDFVEVMGNVLDNACKYCLEFVEISARQTDEHLYIVVEDDGPGIPLSKREVIFDRGQRVDTLRPGQGVGLAVAREITEQYEGKIVAGESMLGGARMEVIFGRQHSAPKDE

Variants of: B1
Assay: enrichment ratio after two sorts for PhoP signalling (ratio (wild type AVST 3.29)); higher = more functional
Conditions: with PhoP (E. coli)

Variant | enrichment ratio
RCCV | ≤ 0.25
HCCN | ≤ 0.25
DQAF | ≤ 0.25
MSWR | ≤ 0.25
LKGA | ≤ 0.25
QFKP | ≤ 0.25
PNMH | ≤ 0.25
RIDH | ≤ 0.25
LTWP | ≤ 0.25
RSPV | 0.604
LFPT | ≤ 0.25
HNCY | ≤ 0.25
SVPL | 10.6
VMRT | ≤ 0.25
HSTL | 5.46
IPIK | ≤ 0.25
YEPY | ≤ 0.25
VWCI | ≤ 0.25
YAVF | ≤ 0.25
AMQE | ≤ 0.25
KYMQ | ≤ 0.25
NASK | ≤ 0.25
MFSY | ≤ 0.25
QGYH | ≤ 0.25

Variant | enrichment ratio
SHDH | ≤ 0.25
LNED | ≤ 0.25
YQRF | ≤ 0.25
RYRT | ≤ 0.25
MIAL | 8.8
HDGH | ≤ 0.25
AKKQ | ≤ 0.25
QAEL | ≤ 0.25
IKGL | ≤ 0.25
YYPI | ≤ 0.25
LRLP | ≤ 0.25
CLSH | ≤ 0.25
MYST | ≤ 0.25
MDRM | ≤ 0.25
MKTH | ≤ 0.25
ALPD | ≤ 0.25
LFFA | 0.765
PALT | ≤ 0.25
IHDA | ≤ 0.25
YSDE | ≤ 0.25
VIMF | ≤ 0.25
DWKC | ≤ 0.25
AWNF | ≤ 0.25
HHTE | ≤ 0.25

Variant | enrichment ratio
TRVK | ≤ 0.25
PTFK | ≤ 0.25
TPAF | ≤ 0.25
GYHD | ≤ 0.25
PMNL | ≤ 0.25
VKDG | ≤ 0.25
IVYC | ≤ 0.25
INMW | ≤ 0.25
RRRV | ≤ 0.25
VSRL | ≤ 0.25
QPYS | ≤ 0.25
MVIK | ≤ 0.25
FRWV | ≤ 0.25
PAGP | ≤ 0.25
NHII | ≤ 0.25
AQAP | ≤ 0.25
DQRT | ≤ 0.25
IPIE | ≤ 0.25
FRAQ | ≤ 0.25
LTWL | ≤ 0.25
WGRE | ≤ 0.25
VAVI | ≤ 0.25
KVQE | ≤ 0.25
KFRP | ≤ 0.25

Variant | enrichment ratio
ISFM | 0.832
GNNC | ≤ 0.25
HGPE | ≤ 0.25
GYTG | ≤ 0.25
ARMP | ≤ 0.25
MGVM | 5.79
TKVP | ≤ 0.25
WKFS | ≤ 0.25
HLFQ | ≤ 0.25
YHHH | ≤ 0.25
HTEK | ≤ 0.25
TFYK | ≤ 0.25
NENL | ≤ 0.25
VKEM | ≤ 0.25
RDER | ≤ 0.25
KVDA | ≤ 0.25
IWTW | ≤ 0.25
WAVG | ≤ 0.25
RLPA | ≤ 0.25
HTGQ | ≤ 0.25
PDDP | ≤ 0.25
HRAI | ≤ 0.25
MPIS | ≤ 0.25
VAFV | ≤ 0.25

Variant | enrichment ratio
ETWL | ≤ 0.25
EALN | ≤ 0.25
SIYM | 0.397
FNND | ≤ 0.25
EGLK | ≤ 0.25
HSWL | ≤ 0.25
RHNC | ≤ 0.25
GMGM | ≤ 0.25
LHSD | ≤ 0.25
NCVG | ≤ 0.25
DRCW | ≤ 0.25
AEKG | ≤ 0.25
IRLI | ≤ 0.25
GIAK | 4.42
NTGC | ≤ 0.25
WGMF | ≤ 0.25
ESEP | ≤ 0.25
AFDH | ≤ 0.25
NVDR | ≤ 0.25
CIYH | ≤ 0.25
DNSM | ≤ 0.25
IMQH | ≤ 0.25
ALLA | 0.346
VWNP | ≤ 0.25

Variant | enrichment ratio
WHTK | ≤ 0.25
RPER | ≤ 0.25
RTNS | ≤ 0.25
PYSG | ≤ 0.25
KHTT | ≤ 0.25
LDAL | ≤ 0.25
VRKD | ≤ 0.25
YMYT | ≤ 0.25
AECD | 17
RCTM | ≤ 0.25
WWCP | ≤ 0.25
WNDV | ≤ 0.25
YLFL | ≤ 0.25
FVRT | ≤ 0.25
PYVE | ≤ 0.25
PKHD | ≤ 0.25
IGDD | ≤ 0.25
LNFC | ≤ 0.25
QDWY | ≤ 0.25
QLLF | ≤ 0.25
GCHW | ≤ 0.25
RVAG | ≤ 0.25
GMEY | ≤ 0.25
YSLP | ≤ 0.25

Variant | enrichment ratio
STMC | 8.81
NRSL | ≤ 0.25
IQWD | ≤ 0.25
KITV | ≤ 0.25
PGEC | ≤ 0.25
VDYA | ≤ 0.25
DESE | ≤ 0.25
PGLP | ≤ 0.25
FHAR | ≤ 0.25
YAKN | ≤ 0.25
EQDF | ≤ 0.25
LGSR | ≤ 0.25
IWQR | ≤ 0.25
HTIN | ≤ 0.25
FEGA | ≤ 0.25
DSEH | ≤ 0.25
WYYK | ≤ 0.25
HIAK | ≤ 0.25
FCSD | ≤ 0.25
NLSP | ≤ 0.25
MCTW | ≤ 0.25
VLGG | ≤ 0.25
INNH | ≤ 0.25
DWVP | ≤ 0.25

Variant | enrichment ratio
MACV | ≤ 0.25
FVFM | ≤ 0.25
FWSK | ≤ 0.25
PGAI | ≤ 0.25
GSLQ | 6.06
YRCP | ≤ 0.25
IKWY | ≤ 0.25
DPHT | ≤ 0.25
PDKK | ≤ 0.25
VHVE | ≤ 0.25
PQQF | ≤ 0.25
QGWI | 22.5
NKCT | ≤ 0.25
VYKQ | ≤ 0.25
WRVG | ≤ 0.25
QPFC | ≤ 0.25
SGKG | ≤ 0.25
SHWE | ≤ 0.25
SEDQ | ≤ 0.25
FLGA | ≤ 0.25
DIEY | ≤ 0.25
FYMA | ≤ 0.25
GQWV | ≤ 0.25
TYAI | ≤ 0.25

Variant | enrichment ratio
VRWA | ≤ 0.25
ECDH | 3.63
YHAG | ≤ 0.25
RTWF | ≤ 0.25
IIAP | ≤ 0.25
QGFD | ≤ 0.25
TERL | ≤ 0.25
ASFI | 3.08
DLSM | ≤ 0.25
QKKA | ≤ 0.25
THPF | ≤ 0.25
VQGG | ≤ 0.25
IEVD | ≤ 0.25
DGSP | ≤ 0.25
MICG | 2.37
QYVI | ≤ 0.25
YDII | ≤ 0.25
LPGY | ≤ 0.25
PVRH | ≤ 0.25
DGVL | ≤ 0.25
DHAM | ≤ 0.25
ELTA | ≤ 0.25
EGDS | ≤ 0.25
TGNF | 1.29

Variant | enrichment ratio
HRNF | ≤ 0.25
AGGN | ≤ 0.25
VIPL | ≤ 0.25
WYDD | ≤ 0.25
PPHA | ≤ 0.25
IQRN | ≤ 0.25
DMVM | ≤ 0.25
GINM | ≤ 0.25
PIAN | ≤ 0.25
RRME | ≤ 0.25
MNWQ | ≤ 0.25
RDCL | ≤ 0.25
IMSM | ≤ 0.25
RVNW | ≤ 0.25
QDIM | ≤ 0.25
YKCM | ≤ 0.25
VWPP | ≤ 0.25
YFTN | ≤ 0.25
GICL | 9.48
NVEW | ≤ 0.25
MKLA | ≤ 0.25
DDIN | ≤ 0.25
TELD | 13.4
MECY | 4.09

Variant | enrichment ratio
TNIR | ≤ 0.25
AYSK | ≤ 0.25
LAHP | ≤ 0.25
RMDS | ≤ 0.25
KYHW | ≤ 0.25
DFCC | ≤ 0.25
RFRY | ≤ 0.25
AHPT | ≤ 0.25
HGHM | ≤ 0.25
MGED | ≤ 0.25
VLNA | ≤ 0.25
ADKT | ≤ 0.25
DFQC | ≤ 0.25
MQWC | ≤ 0.25
EGLW | ≤ 0.25
VCKP | ≤ 0.25
HIQI | ≤ 0.25
SYCE | 2.48
PRWG | ≤ 0.25
DFFK | ≤ 0.25
EFLS | ≤ 0.25
FRRP | ≤ 0.25
RMAS | ≤ 0.25
TGPP | ≤ 0.25

Variant | enrichment ratio
HNRD | ≤ 0.25
VHNN | ≤ 0.25
QCFH | ≤ 0.25
SMFV | ≤ 0.25
DDRF | ≤ 0.25
RDQT | ≤ 0.25
QIMF | ≤ 0.25
EVGP | ≤ 0.25
DHFI | ≤ 0.25
VFVY | ≤ 0.25
FYRT | ≤ 0.25
GIPV | ≤ 0.25
TGSH | 8.48
VMIH | ≤ 0.25
KPLI | ≤ 0.25
NEKA | ≤ 0.25
DAEV | ≤ 0.25
VGMS | ≤ 0.25
SNRP | ≤ 0.25
YFVM | ≤ 0.25
INRN | ≤ 0.25
MLNM | ≤ 0.25
DRAD | ≤ 0.25
NGAS | 0.365

Variant | enrichment ratio
YSPM | ≤ 0.25
IECY | ≤ 0.25
IAFA | ≤ 0.25
PWWK | ≤ 0.25
LMLR | ≤ 0.25
IDNT | ≤ 0.25
MMGL | 0.506
WTFH | ≤ 0.25
DDQR | ≤ 0.25
HNPR | ≤ 0.25
CHLM | ≤ 0.25
SWQC | ≤ 0.25
LPYS | ≤ 0.25
PIKL | ≤ 0.25
YDQF | ≤ 0.25
AVYT | 0.57
EGPA | ≤ 0.25
ENIT | ≤ 0.25
